According to PubChem BioAssay AID1346428 (National Center for Advancing Translational Sciences (NCATS), 2018):
Values joined by “and” are separate entries in the source; they are usually repeats but may differ in a detail not shown here. Equal values may be shown once. About 1,200 (2.5%) of roughly 48,000 compounds were called active. Roughly 2% stayed inconclusive and do not appear here.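 Rule for the calls: active = activation of at least 60% and not above a set upper limit (about 1 call in 100 departs from these limits); inconclusive = activation of 40% to 60%, or above that upper limit; inactive = activation under 40%.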 The list shows a part of the results.

Target: Probable G-protein coupled receptor 32 (Homo sapiens) (UniProt O75388)
UniProt O75388, sequence (O75388 whole entry, looked up): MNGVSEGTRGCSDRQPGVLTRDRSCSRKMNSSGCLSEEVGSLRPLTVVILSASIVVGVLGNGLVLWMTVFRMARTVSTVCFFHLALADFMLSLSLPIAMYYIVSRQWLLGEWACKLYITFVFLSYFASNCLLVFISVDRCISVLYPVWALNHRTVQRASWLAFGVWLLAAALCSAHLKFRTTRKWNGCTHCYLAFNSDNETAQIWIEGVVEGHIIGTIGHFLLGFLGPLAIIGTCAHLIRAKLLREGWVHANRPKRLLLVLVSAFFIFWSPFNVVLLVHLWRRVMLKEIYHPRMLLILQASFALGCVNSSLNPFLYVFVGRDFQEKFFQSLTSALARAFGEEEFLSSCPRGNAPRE
Assay: qHTS for Agonists of Human Resolvin D1 Receptor DRV1; note: 0% is about no effect
Settings: CHO-K1 GPR32 beta-arrestin PathHunter luminescence, 90 min; at 76.9 µM; hits give high values; zero percent set by DMSO-only wells
Outline: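 Readings come from a cell-based beta-arrestin complementation format: CHO-K1 GPR32 stable cells (2,500/well) treated 90 min with compounds, then beta-Gal substrate added for 1 h before chemiluminescence imaging.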

activation, inactive:
COc1ccc(C2(CNC(=O)C(=O)Nc3cccc(C(F)(F)F)c3)CCCC2)cc1OC -15.6%, COc1cc(OC)c(NC(=O)CCn2cnc3onc(-c4ccc(F)cc4)c3c2=O)cc1Cl 13.4%, Cc1oc(-c2cccc(Cl)c2)nc1CN1CCC(C(=O)NCCCN2CCN(c3cccc(Cl)c3)CC2)CC1 40.4%, Nc1cc(=O)nc(SCC(=O)Nc2ccc(F)cc2)n1-c1ccc(Cl)cc1 -44.9%, CCOc1ccc(NC(=O)N(Cc2c[nH]c3ccccc23)C2CCCCC2)cc1 -8.32%, CCC[C@@H]1C[C@@H](C(=O)N[C@@H]([C@H]2O[C@H](SC)[C@H](O)[C@@H](O)[C@H]2O)[C@@H](C)O)N(C)C1 -4.44%, Cc1ccc(CNCc2c(C(=O)O)n(Cc3ccccc3C)c3cc(C)ccc23)cc1 -0.051%, CCCCNC(=O)c1[nH]c2ccccc2c1Sc1ccc(C)cc1 -7.6%, O=C(Nc1c(C(=O)c2ccccc2)oc2ccccc12)c1ccc(F)cc1 25.9%, CCOc1ccc(C(=O)Nc2ccc3oc(-c4cccc5ccccc45)nc3c2)cc1 -7.18%, O=C1CN(C(=O)c2ccc(S(=O)(=O)N3CCCC3)cc2)C(c2ccccc2)c2cc(Cl)ccc2N1 (centres undefined) -29%, O=C(CN1CCN(Cc2ccc(F)cc2Cl)C1=O)NCCc1ccc(Cl)cc1 43.7%, CC(C)c1nc2ccc(C(=O)NCCCN3CCN(c4ccccc4)CC3)cc2o1 -5.81%, Cc1ccc(O)c(Nc2nc3ccccc3c3nncn23)c1 21.3%, COc1cccc(C(=O)Nc2ccc3nc4n(c(=O)c3c2)CCCCC4)c1 1.21%, Cc1cc(C)n(CC(=O)Nc2cc(F)ccc2F)c(=O)c1C#N -4.15%, COc1ccc(OC)c(NC(=O)N2CC(C)Oc3ccc(C)cc32)c1 (centres undefined) -31.1%, Cc1ccc(C(=O)c2cn(CC(=O)NCc3ccccc3)c3nc(C)ccc3c2=O)cc1 8.69%, CCOc1ccc(-c2nc(C(N)=O)c3c(n2)n(-c2ccc4c(c2)OCO4)c(=O)n3CC)cc1 5.48%, O=S(=O)(NCC(c1ccco1)N1CCOCC1)c1ccc(F)cc1 (centres undefined) -0.788%, Cc1cc(C)c2oc(C(=O)Nc3c(C(=O)c4ccccc4)oc4ccccc34)cc(=O)c2c1 14.7%, Cc1ccc(CNC(=O)Cn2cc3c(n2)-c2c(oc(C(=O)N4CCOCC4)c2C)CC3)cc1 8.98%, CC1=C(C(N)=O)C(c2ccccc2F)n2nc(-c3ccc(Cl)cc3)nc2N1 (centres undefined) 5.41%, COC(=O)c1cc(S(=O)(=O)N2CCN(c3cc(Cl)ccc3C)CC2)c[nH]1 13.7%, Cc1ccc(C(=O)NCCC(C)C)cc1NC(=O)c1nsc2ccccc12 -15.7%, COc1cc2c(=O)c(C(=O)c3ccc(F)cc3)cn(Cc3cccc(F)c3)c2cc1OC 10.3%, CCN(CC)c1ccc(NC(=O)Cn2c3ncccc3c(=O)n2-c2ccccc2)c(C)c1 -13.8%, COc1ccccc1CNc1ncnc2c1c(-c1ccccc1)cn2-c1ccc(Br)cc1 -28.7%, CCc1ccc(CNC(=O)c2cnc(N3CCCCC3)c3ccccc23)cc1 -13.9%, CC12CC3CC(C)(C1)CC(N)(C3)C2 -4.38% and -12.3%, COc1ccc(CCNC(=O)C(=O)Nc2ccc(C)c(C)c2)cc1 -1.19%, CC(C)c1ccc(S(=O)(=O)c2cn(CC(=O)Nc3ccc(F)cc3)c3ccccc3c2=O)cc1 -5.15%, O=C(CSc1nc2c(c(=O)[nH]1)CCCC2)Nc1ccccc1C(F)(F)F -7.79%, O=C(CN1C(=O)CC(c2ccco2)Sc2ccccc21)Nc1cccc(C(F)(F)F)c1 (centres undefined) 11.5%, CC1CCN(S(=O)(=O)c2cc(C(=O)NCc3ccc(N(C)C)cc3)n(C)c2)CC1 11.7%, Cc1ccccc1CN1c2ccccc2-c2nc(SCC(=O)c3ccc(Cl)cc3)ncc2S1(=O)=O -16%, Cc1csc2nc(-c3cccc(NS(C)(=O)=O)c3)cn12 19.7%, COCCCNC(=O)CCCN1C(=O)CCn2nc(-c3cccn3C)cc21 -8.59%, CCOc1ccc(NC(=O)Cn2c(=O)cc(C)c3c(C)nn(C)c32)cc1 18.4%, CCc1ccccc1NC(=O)Cn1c(=O)n(Cc2ccccc2)c(=O)c2c(C)c(C(=O)N(C)C)sc21 -14.1%, Cc1csc2nc(-c3ccc(NS(=O)(=O)c4cccc(F)c4)cc3)cn12 -0.302%, Cc1ccc(-c2nc(C)c(CCNC(=O)C(=O)Nc3cc(C)ccc3C)s2)cc1 -7.54%, Cc1oc2ccc(NS(=O)(=O)c3ccc(F)cc3)cc2c1C(=O)O 2.63%, CCCOc1ccc(C2=NC(c3ccncc3)=Nc3ccc(C)cc3N2)cc1 -4.37%, Cc1ccccc1CNC(=O)c1ccc(NC(=O)N2CCCCc3ccccc32)cc1 -7.72%, Cc1ccccc1-c1noc(-c2ccc(N3CCC(C)CC3)c([N+](=O)[O-])c2)n1 -5.9%, Cc1ccc(S(=O)(=O)c2c(Nc3ccc(C)c(C)c3)sc(C(=O)c3ccc4c(c3)OCO4)c2N)cc1 -20.1%, CSc1ncc(Cl)c(C(=O)Nc2c(C(=O)Nc3cccc(C)c3)oc3ccccc23)n1 2.21%, COc1cc(CSc2ncc(CO)n2Cc2ccc(C)cc2)cc(OC)c1 17.7%, COc1ccc(CNC(=O)CCCN2C(=O)CCn3nc(-c4cn(C)c5ccccc45)cc32)cc1 0.409%, Cc1c(Cl)cccc1NC(=O)CSc1nc(=O)[nH]c2c1CCCC2 -1.57%, O=C(NCCc1ccc(Cl)cc1)C1(c2cccs2)CCOCC1 35.6%, Cc1ccc(-n2c(=O)c3cccnc3n2CC(=O)Nc2ccc(C)cc2Cl)cc1 -3.88%, COc1ccc(OC)c(NC(=O)Cn2ncc3c2-c2ccccc2OC3)c1 10.6%, O=C(NCCC1=CCCCC1)C1CCN(C(=O)N2CCOc3ccccc32)CC1 -0.475%, O=C1CN(C(=O)c2ccc(S(=O)(=O)N3CCCCC3)cc2)C(c2ccc(F)cc2)c2cc(Cl)ccc2N1 (centres undefined) -20%, Cc1cccc(-c2nc(CS(=O)CC(=O)NCc3ccc(Cl)cc3)c(C)o2)c1 (centres undefined) -0.277%, O=C(NCCc1ccccc1)c1ccc(CSc2nc3cccnc3n2Cc2ccccc2F)cc1 -49.3%, COc1ccc(C2=C(C)C(=O)N(Cc3ccc(C(=O)Nc4ccc(F)cc4C)cc3)S2(=O)=O)cc1 -13.4%, CCN(CC)CCn1c(=N)n(CCOc2ccccc2Cl)c2ccccc21 -10.7%, CCOC(=O)c1cc(-c2ccccc2)n(CC(=O)NCc2ccc(C)cc2)c1C -10.7%, COc1cccc(-c2cn3c(n2)sc2cc(C(=O)NCc4ccccc4F)ccc23)c1 -18%, CCOC(=O)C(=O)CCc1ccccc1 0.467%, COc1ccc(-c2[nH]ncc2C(=O)NCc2cccc(Cl)c2)cc1 -7.45%, O=C(NCC(c1cccnc1)N1CCOCC1)C(=O)Nc1ccc(Cl)cc1 (centres undefined) 5.25%, CCOC(=O)c1c(C)oc2nc(C)nc(NCC3CCN(Cc4ccccc4C)CC3)c12 -4.7%, Cc1ccc2nc(-c3cccc(NC(=O)c4cccc5c(Cl)cccc45)c3)oc2c1 11.5%, Cc1ccc2c(c1)-c1c(cnn1CC(=O)N1CCN(c3cc(C)ccc3C)CC1)CO2 -21.9%, Cc1ccccc1S(=O)(=O)Cc1ccc(C(=O)NCCc2ccccc2)o1 -1.74%, CN(CCCNC(=O)Cn1ncc2c([nH]c3ccccc32)c1=O)Cc1ccccc1 -17.8%, Cc1ccccc1CNC(=O)C(=O)NCC(c1ccc2c(c1)OCO2)N1CCOCC1 (centres undefined) -10.6%, CC1CCN(c2csc3ccc(F)cc3c2=O)CC1 4.17%, CC(C)N1CCc2c(sc(NC(=O)c3ccc(S(=O)(=O)N(C)C4CCCCC4)cc3)c2C(N)=O)C1 -50.2%, O=C(NCc1ccc(Cl)cc1)c1ccc(CNS(=O)(=O)c2ccc(F)cc2)cc1 7.49%, COCCc1nn2c(=O)cc(COC(=O)c3ccco3)nc2s1 33%, CC(=O)c1ccc(NC(=O)c2cc(S(=O)(=O)N3CCOCC3)ccc2C)cc1 12.1%, CCC(Sc1nc2cc(OC)c(OC)cc2c(=O)n1Cc1ccc(OC)cc1)C(=O)NCCOC (centres undefined) -15.4%, Cc1cc(N2CCN(c3ccccc3)CC2)n2cnnc2n1 7.53%, CCN1CCN(C(=O)c2ccc3c(c2)N(Cc2ccccc2)C(=O)c2ccccc2S3(=O)=O)CC1 -28.3%, CCCN1CCN(CCCNC(=O)c2ccc3c(c2)sc2nc(-c4ccc(OCC)cc4)cn23)CC1 -0.789%, CCOc1ccc(-c2cn3c(n2)sc2cc(C(=O)N4CCCC(C)C4)ccc23)cc1 (centres undefined) -2.63%, Cc1nc(-c2ccc(F)cc2)sc1CCNC(=O)c1ccc(OC(C)C)cc1 -10.3%, COc1ccccc1CNC(=O)C1CCN(C2=NS(=O)(=O)C(c3ccc(C)c(C)c3)=C2C)CC1 -4.38%, Cc1cc(C)cc(OCC(=O)N(Cc2ccc(Cl)cc2)C2CCS(=O)(=O)C2)c1 (centres undefined) -18.2%
